# Some of the results follow.
# B1: Pwp3 (Candida glabrata) (protein)
# chain: MGSSHHHHHHSSGLVPRGSHMASKNPVDFTTVCQFPDNFSKKPGFLATTARLGLWITGNSYKELLNYPGTFTLTTQQASTTTPNIQLRGTDLFTTIYGLTVYPLYLLVELQGYFVPTQSGMYTFSLTGSDDAAIIFIGNPSTFPCDAFKTWPQATANDITVTDSINPSRTLYMVKGVAYPLRIAYYNGLGNGVLNAAFTDPSGTKRTDWNGYIWQYDQCSTCTYK
# How the values were obtained:
# Experiment in all cases: glycan array binding signal (z-score within array); higher = stronger binding
# Conditions in all cases: glycan notation: IUPAC condensed, linker removed
# Gal(b1-2)Gal = target: Gal(b1-2)Gal
# Method in brief: (§1)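 From the Consortium for Functional Glycomics database, 3228 arrays were curated, keeping only those whose protein sequence was available. Binding is given as a within-array Z-score averaged across arrays sharing a protein sequence and across linkers. Negative Z-scores can be read as non-binding.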
# Gal(b1-3)Gal = target: Gal(b1-3)Gal
# Method in brief: as §1
# Gal(b1-3)Gal(b1-4)GlcNAc = target: Gal(b1-3)Gal(b1-4)GlcNAc
# Method in brief: as §1
# Gal(b1-3)GalNAc = target: Gal(b1-3)GalNAc
# Method in brief: as §1
# [1] = target: Gal(b1-3)GalNAc(a1-3)[Fuc(a1-2)]Gal(b1-4)Glc
# Method in brief: as §1
# [2] = target: Gal(b1-3)GalNAc(a1-3)[Fuc(a1-2)]Gal(b1-4)GlcNAc
# Method in brief: as §1
# Gal(b1-3)GalNAc(b1-3)Gal = target: Gal(b1-3)GalNAc(b1-3)Gal
# Method in brief: as §1
# [3] = target: Gal(b1-3)GalNAc(b1-3)Gal(a1-4)Gal(b1-4)Glc
# Method in brief: as §1
# [4] = target: Gal(b1-3)GalNAc(b1-4)Gal(b1-4)Glc
# Method in brief: as §1
# [5] = target: Gal(b1-3)GalNAc(b1-4)[Neu5Ac(a2-3)]Gal(b1-4)Glc
# Method in brief: as §1
# Gal(b1-3)GlcNAc = target: Gal(b1-3)GlcNAc
# Method in brief: as §1
# [6] = target: Gal(b1-3)GlcNAc(a1-3)Gal(b1-4)GlcNAc
# Method in brief: as §1
# [7] = target: Gal(b1-3)GlcNAc(a1-6)Gal(b1-4)GlcNAc
# Method in brief: as §1
# Gal(b1-3)GlcNAc(b1-2)Man = target: Gal(b1-3)GlcNAc(b1-2)Man
# Method in brief: as §1
# [8] = target: Gal(b1-3)GlcNAc(b1-2)Man(a1-3)[Gal(b1-3)GlcNAc(b1-2)Man(a1-6)]Man(b1-4)GlcNAc(b1-4)GlcNAc
# Method in brief: as §1
# [9] = target: Gal(b1-3)GlcNAc(b1-2)Man(a1-3)[Gal(b1-3)GlcNAc(b1-2)Man(a1-6)]Man(b1-4)GlcNAc(b1-4)[Fuc(a1-6)]GlcNAc
# Method in brief: as §1
# [10] = target: Gal(b1-3)GlcNAc(b1-2)Man(a1-3)[GlcNAc(b1-4)][Gal(b1-3)GlcNAc(b1-2)Man(a1-6)]Man(b1-4)GlcNAc(b1-4)GlcNAc
# Method in brief: as §1
# [11] = target: Gal(b1-3)GlcNAc(b1-2)[Gal(b1-3)GlcNAc(b1-6)]Man(a1-6)[Gal(b1-3)GlcNAc(b1-2)Man(a1-3)]Man(b1-4)GlcNAc(b1-4)GlcNAc
# Method in brief: as §1
# [12] = target: Gal(b1-3)GlcNAc(b1-3)Gal(b1-3)GlcNAc
# Method in brief: as §1
# [13] = target: Gal(b1-3)GlcNAc(b1-3)Gal(b1-4)Glc
# Method in brief: as §1
# [14] = target: Gal(b1-3)GlcNAc(b1-3)Gal(b1-4)GlcNAc
# Method in brief: as §1
# [15] = target: Gal(b1-3)GlcNAc(b1-3)Gal(b1-4)GlcNAc(b1-2)Man(a1-3)[Gal(b1-3)GlcNAc(b1-3)Gal(b1-4)GlcNAc(b1-2)Man(a1-6)]Man(b1-4)GlcNAc(b1-4)GlcNAc
# Method in brief: as §1
# [16] = target: Gal(b1-3)GlcNAc(b1-3)Gal(b1-4)GlcNAc(b1-2)[Gal(b1-3)GlcNAc(b1-3)Gal(b1-4)GlcNAc(b1-6)]Man(a1-6)[Gal(b1-3)GlcNAc(b1-3)Gal(b1-4)GlcNAc(b1-2)Man(a1-3)]Man(b1-4)GlcNAc(b1-4)[Fuc(a1-6)]GlcNAc
# Method in brief: as §1
# [17] = target: Gal(b1-3)GlcNAc(b1-3)Gal(b1-4)GlcNAc(b1-3)Gal(b1-4)GlcNAc(b1-2)[Gal(b1-3)GlcNAc(b1-3)Gal(b1-4)GlcNAc(b1-3)Gal(b1-4)GlcNAc(b1-6)]Man(a1-6)[Gal(b1-3)GlcNAc(b1-3)Gal(b1-4)GlcNAc(b1-3)Gal(b1-4)GlcNAc(b1-2)Man(a1-3)]Man(b1-4)GlcNAc(b1-4)[Fuc(a1-6)]GlcNAc
# Method in brief: as §1
# [18] = target: Gal(b1-3)GlcNAc(b1-3)Gal(b1-4)GlcNAc(b1-6)[Gal(b1-3)GlcNAc(b1-3)]Gal(b1-4)Glc
# Method in brief: as §1
# [19] = target: Gal(b1-3)GlcNAc(b1-3)Gal(b1-4)[Fuc(a1-3)]GlcNAc
# Method in brief: as §1
# [20] = target: Gal(b1-3)GlcNAc(b1-3)Gal(b1-4)[Fuc(a1-3)]GlcNAc(b1-6)[Gal(b1-3)GlcNAc(b1-3)]Gal(b1-4)Glc
# Method in brief: as §1
# [21] = target: Gal(b1-3)GlcNAc(b1-3)GalNAc
# Method in brief: as §1
# [22] = target: Gal(b1-3)GlcNAc(b1-6)Gal(b1-4)GlcNAc
# Method in brief: as §1
# [23] = target: Gal(b1-3)GlcNAc(b1-6)GalNAc
# Method in brief: as §1
# [24] = target: Gal(b1-3)GlcNAc(b1-6)[Gal(b1-3)]GalNAc
# Method in brief: as §1
# Gal(b1-3)GlcNAc6S = target: Gal(b1-3)GlcNAc6S
# Method in brief: as §1
# [25] = target: Gal(b1-3)[Fuc(a1-4)]GlcNAc
# Method in brief: as §1
# [26] = target: Gal(b1-3)[Fuc(a1-4)]GlcNAc(b1-2)Man
# Method in brief: as §1
# [27] = target: Gal(b1-3)[Fuc(a1-4)]GlcNAc(b1-2)Man(a1-3)[Gal(b1-3)[Fuc(a1-4)]GlcNAc(b1-2)Man(a1-6)]Man(b1-4)GlcNAc(b1-4)[Fuc(a1-6)]GlcNAc
# Method in brief: as §1
# [28] = target: Gal(b1-3)[Fuc(a1-4)]GlcNAc(b1-3)Gal(b1-3)[Fuc(a1-4)]GlcNAc
# Method in brief: as §1
# [29] = target: Gal(b1-3)[Fuc(a1-4)]GlcNAc(b1-3)Gal(b1-4)[Fuc(a1-3)]GlcNAc
# Method in brief: as §1
# [30] = target: Gal(b1-3)[Fuc(a1-4)]GlcNAc(b1-6)GalNAc
# Method in brief: as §1
# [31] = target: Gal(b1-3)[GlcNAc(b1-6)]GalNAc
# Method in brief: as §1
# [32] = target: Gal(b1-3)[Neu5Ac(a2-6)]GalNAc
# Method in brief: as §1
# [33] = target: Gal(b1-3)[Neu5Ac(a2-6)]GlcNAc(b1-4)Gal(b1-4)Glc
# Method in brief: as §1
# [34] = target: Gal(b1-3)[Neu5Ac(b2-6)]GalNAc
# Method in brief: as §1
# Gal(b1-4)Gal = target: Gal(b1-4)Gal
# Method in brief: as §1
# [35] = target: Gal(b1-4)GalNAc(a1-3)[Fuc(a1-2)]Gal(b1-4)GlcNAc
# Method in brief: as §1
# [36] = target: Gal(b1-4)GalNAc(b1-3)[Fuc(a1-2)]Gal(b1-4)GlcNAc
# Method in brief: as §1
binder,measurement,setting,value
B1,glycan array binding signal (z-score),Gal(b1-2)Gal,0.009
same,glycan array binding signal (z-score),Gal(b1-3)Gal,-0.24
same,glycan array binding signal (z-score),Gal(b1-3)Gal(b1-4)GlcNAc,0.839
same,glycan array binding signal (z-score),Gal(b1-3)GalNAc,-0.038
same,glycan array binding signal (z-score),[1],-0.467
same,glycan array binding signal (z-score),[2],2.05
same,glycan array binding signal (z-score),Gal(b1-3)GalNAc(b1-3)Gal,-0.157
same,glycan array binding signal (z-score),[3],-0.23
same,glycan array binding signal (z-score),[4],4.7
same,glycan array binding signal (z-score),[5],-0.28
same,glycan array binding signal (z-score),Gal(b1-3)GlcNAc,-0.176
same,glycan array binding signal (z-score),[6],0.478
same,glycan array binding signal (z-score),[7],3.24
same,glycan array binding signal (z-score),Gal(b1-3)GlcNAc(b1-2)Man,-0.295
same,glycan array binding signal (z-score),[8],-0.826
same,glycan array binding signal (z-score),[9],-0.435
same,glycan array binding signal (z-score),[10],-0.415
same,glycan array binding signal (z-score),[11],-0.547
same,glycan array binding signal (z-score),[12],0.247
same,glycan array binding signal (z-score),[13],-0.308
same,glycan array binding signal (z-score),[14],-0.118
same,glycan array binding signal (z-score),[15],-0.92
same,glycan array binding signal (z-score),[16],-0.274
same,glycan array binding signal (z-score),[17],0.588
same,glycan array binding signal (z-score),[18],-0.347
same,glycan array binding signal (z-score),[19],-0.318
same,glycan array binding signal (z-score),[20],-0.145
same,glycan array binding signal (z-score),[21],-0.621
same,glycan array binding signal (z-score),[22],-0.389
same,glycan array binding signal (z-score),[23],1.24
same,glycan array binding signal (z-score),[24],-0.594
same,glycan array binding signal (z-score),Gal(b1-3)GlcNAc6S,-0.176
same,glycan array binding signal (z-score),[25],-0.246
same,glycan array binding signal (z-score),[26],-0.28
same,glycan array binding signal (z-score),[27],0.025
same,glycan array binding signal (z-score),[28],0.002
same,glycan array binding signal (z-score),[29],-0.076
same,glycan array binding signal (z-score),[30],2.25
same,glycan array binding signal (z-score),[31],-0.425
same,glycan array binding signal (z-score),[32],-0.008
same,glycan array binding signal (z-score),[33],-0.089
same,glycan array binding signal (z-score),[34],0.04
same,glycan array binding signal (z-score),Gal(b1-4)Gal,-0.526
same,glycan array binding signal (z-score),[35],-0.252
same,glycan array binding signal (z-score),[36],-0.435

# Reference: the supplement of paper PMC8728848
